From PMC9911399, “Two distinct binding modes provide the RNA-binding protein RbFox with extraordinary sequence specificity”
Positions count from the first letter of the chain named. Some of the results follow.

T1: RBFOX1 RRM (Homo sapiens, UniProt Q9NWB1 109-208)
T1 sequence: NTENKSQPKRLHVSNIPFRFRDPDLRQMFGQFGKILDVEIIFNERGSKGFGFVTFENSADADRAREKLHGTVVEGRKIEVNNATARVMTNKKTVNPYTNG

B1: AGUAGUC (DNA:RNA)
RNA: GGGAGACCGGAAUUCAGAUUGUCCAGUAGUCUUAAAUCCCGUCGUAGCCACCA
DNA 1: CAATCTGAATTCCGGTCTCCC
DNA 2: TGGTGGCTACGACGGGATT
B2: UUCAGAC (DNA:RNA)
RNA: B1 RNA with A25U, G26U, U27C, U30A
DNA 1: CAATCTGAATTCCGGTCTCCC
DNA 2: TGGTGGCTACGACGGGATT
B3: GACGGUC (DNA:RNA)
RNA: B1 RNA with A25G, G26A, U27C, A28G
DNA 1: CAATCTGAATTCCGGTCTCCC
DNA 2: TGGTGGCTACGACGGGATT
B4: CUUUCAU (DNA:RNA)
RNA: B1 RNA with A25C, G26U, A28U, G29C, U30A, C31U
DNA 1: CAATCTGAATTCCGGTCTCCC
DNA 2: TGGTGGCTACGACGGGATT
B5: AACUAUG (DNA:RNA)
RNA: B1 RNA with G26A, U27C, A28U, G29A, C31G
DNA 1: CAATCTGAATTCCGGTCTCCC
DNA 2: TGGTGGCTACGACGGGATT
B6: ACGCCCG (DNA:RNA)
RNA: B1 RNA with G26C, U27G, A28C, G29C, U30C, C31G
DNA 1: CAATCTGAATTCCGGTCTCCC
DNA 2: TGGTGGCTACGACGGGATT
B7: CAAGGGC (DNA:RNA)
RNA: B1 RNA with A25C, G26A, U27A, A28G, U30G
DNA 1: CAATCTGAATTCCGGTCTCCC
DNA 2: TGGTGGCTACGACGGGATT
B8: ACAGUAU (DNA:RNA)
RNA: B1 RNA with G26C, U27A, A28G, G29U, U30A, C31U
DNA 1: CAATCTGAATTCCGGTCTCCC
DNA 2: TGGTGGCTACGACGGGATT
B9: UGCCGCG (DNA:RNA)
RNA: B1 RNA with A25U, U27C, A28C, U30C, C31G
DNA 1: CAATCTGAATTCCGGTCTCCC
DNA 2: TGGTGGCTACGACGGGATT
B10: GAUAGAC (DNA:RNA)
RNA: B1 RNA with A25G, G26A, U30A
DNA 1: CAATCTGAATTCCGGTCTCCC
DNA 2: TGGTGGCTACGACGGGATT
B11: AGGCAAG (DNA:RNA)
RNA: B1 RNA with U27G, A28C, G29A, U30A, C31G
DNA 1: CAATCTGAATTCCGGTCTCCC
DNA 2: TGGTGGCTACGACGGGATT
B12: ACCGGUA (DNA:RNA)
RNA: B1 RNA with G26C, U27C, A28G, C31A
DNA 1: CAATCTGAATTCCGGTCTCCC
DNA 2: TGGTGGCTACGACGGGATT
B13: CGAGGAU (DNA:RNA)
RNA: B1 RNA with A25C, U27A, A28G, U30A, C31U
DNA 1: CAATCTGAATTCCGGTCTCCC
DNA 2: TGGTGGCTACGACGGGATT
B14: UAUGAUC (DNA:RNA)
RNA: B1 RNA with A25U, G26A, A28G, G29A
DNA 1: CAATCTGAATTCCGGTCTCCC
DNA 2: TGGTGGCTACGACGGGATT
B15: GAGUUUG (DNA:RNA)
RNA: B1 RNA with A25G, G26A, U27G, A28U, G29U, C31G
DNA 1: CAATCTGAATTCCGGTCTCCC
DNA 2: TGGTGGCTACGACGGGATT
B16: ACCAAUU (DNA:RNA)
RNA: B1 RNA with G26C, U27C, G29A, C31U
DNA 1: CAATCTGAATTCCGGTCTCCC
DNA 2: TGGTGGCTACGACGGGATT
B17: CCUCGCU (DNA:RNA)
RNA: B1 RNA with A25C, G26C, A28C, U30C, C31U
DNA 1: CAATCTGAATTCCGGTCTCCC
DNA 2: TGGTGGCTACGACGGGATT
B18: ACCUUAC (DNA:RNA)
RNA: B1 RNA with G26C, U27C, A28U, G29U, U30A
DNA 1: CAATCTGAATTCCGGTCTCCC
DNA 2: TGGTGGCTACGACGGGATT
B19: UGCAGAC (DNA:RNA)
RNA: B1 RNA with A25U, U27C, U30A
DNA 1: CAATCTGAATTCCGGTCTCCC
DNA 2: TGGTGGCTACGACGGGATT
B20: UGAGAUA (DNA:RNA)
RNA: B1 RNA with A25U, U27A, A28G, G29A, C31A
DNA 1: CAATCTGAATTCCGGTCTCCC
DNA 2: TGGTGGCTACGACGGGATT
B21: CUCGAGC (DNA:RNA)
RNA: B1 RNA with A25C, G26U, U27C, A28G, G29A, U30G
DNA 1: CAATCTGAATTCCGGTCTCCC
DNA 2: TGGTGGCTACGACGGGATT
B22: GCCUCUA (DNA:RNA)
RNA: B1 RNA with A25G, G26C, U27C, A28U, G29C, C31A
DNA 1: CAATCTGAATTCCGGTCTCCC
DNA 2: TGGTGGCTACGACGGGATT
B23: GUAUGGU (DNA:RNA)
RNA: B1 RNA with A25G, G26U, U27A, A28U, U30G, C31U
DNA 1: CAATCTGAATTCCGGTCTCCC
DNA 2: TGGTGGCTACGACGGGATT
B24: AUAUACA (DNA:RNA)
RNA: B1 RNA with G26U, U27A, A28U, G29A, U30C, C31A
DNA 1: CAATCTGAATTCCGGTCTCCC
DNA 2: TGGTGGCTACGACGGGATT
B25: UCUCGAA (DNA:RNA)
RNA: B1 RNA with A25U, G26C, A28C, U30A, C31A
DNA 1: CAATCTGAATTCCGGTCTCCC
DNA 2: TGGTGGCTACGACGGGATT
B26: CGGAGGU (DNA:RNA)
RNA: B1 RNA with A25C, U27G, U30G, C31U
DNA 1: CAATCTGAATTCCGGTCTCCC
DNA 2: TGGTGGCTACGACGGGATT
B27: UAAUUCC (DNA:RNA)
RNA: B1 RNA with A25U, G26A, U27A, A28U, G29U, U30C
DNA 1: CAATCTGAATTCCGGTCTCCC
DNA 2: TGGTGGCTACGACGGGATT
B28: GUUCCUC (DNA:RNA)
RNA: B1 RNA with A25G, G26U, A28C, G29C
DNA 1: CAATCTGAATTCCGGTCTCCC
DNA 2: TGGTGGCTACGACGGGATT
B29: CAAGACU (DNA:RNA)
RNA: GGGAGACCGGAAUUCAGAUUGUCCCAAGACUUUAAAUCCCGUCGUAGCCACCA
DNA 1: CAATCTGAATTCCGGTCTCCC
DNA 2: TGGTGGCTACGACGGGATT
B30: GCCGACC (DNA:RNA)
RNA: B29 RNA with C25G, A26C, A27C, U31C
DNA 1: CAATCTGAATTCCGGTCTCCC
DNA 2: TGGTGGCTACGACGGGATT
B31: UUCUUAU (DNA:RNA)
RNA: B29 RNA with C25U, A26U, A27C, G28U, A29U, C30A
DNA 1: CAATCTGAATTCCGGTCTCCC
DNA 2: TGGTGGCTACGACGGGATT

Target: T1, RBFOX1 RRM
Test: EMSA; HiTS-Eq, 1 nM pool, 10 min; buffer printed only for the single-RNA assays: 10 mM Tris pH 7.5, 150 mM NaCl, 3.4 mM EDTA, 0.001% NP-40, 30 C
Settings: tags: His6 N-terminal (pET28a); label: 5' 32P
Summary of the method: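 Purified RbFox RRM, wild type or mutant, was incubated for 10 min in 50 µL with 1 nM of a 5′-radiolabelled RNA pool carrying 7 randomized nucleotides, whose flanks were annealed to DNA oligonucleotides, over a series of increasing protein concentrations. Unbound RNA was resolved on 8% native PAGE, cut out, reverse-transcribed, barcoded by PCR and sequenced on an Illumina HiSeq 2500. Relative association constants were derived from changes in read counts for each RNA species versus the control reaction and normalised to the cognate motif.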

| Binder | binding signal |
| --- | --- |
| B1 | 0.0132 KA relative to UGCAUGU |
| B2 | 0.00664 KA relative to UGCAUGU |
| B3 | 0.0221 KA relative to UGCAUGU |
| B4 | 0.00217 KA relative to UGCAUGU |
| B5 | 0.00645 KA relative to UGCAUGU |
| B6 | 0.00309 KA relative to UGCAUGU |
| B7 | 0.00331 KA relative to UGCAUGU |
| B8 | 0.00142 KA relative to UGCAUGU |
| B9 | 0.0142 KA relative to UGCAUGU |
| B10 | 0.0144 KA relative to UGCAUGU |
| B11 | 0.0124 KA relative to UGCAUGU |
| B12 | 0.00466 KA relative to UGCAUGU |
| B13 | 0.01 KA relative to UGCAUGU |
| B14 | 0.0131 KA relative to UGCAUGU |
| B15 | 0.023 KA relative to UGCAUGU |
| B16 | 0.000256 KA relative to UGCAUGU |

| Binder | binding signal |
| --- | --- |
| B17 | 0.0112 KA relative to UGCAUGU |
| B18 | 0.00421 KA relative to UGCAUGU |
| B19 | 0.0137 KA relative to UGCAUGU |
| B20 | 0.0189 KA relative to UGCAUGU |
| B21 | 0.0101 KA relative to UGCAUGU |
| B22 | 0.00774 KA relative to UGCAUGU |
| B23 | 0.0104 KA relative to UGCAUGU |
| B24 | 0.000317 KA relative to UGCAUGU |
| B25 | 0.0115 KA relative to UGCAUGU |
| B26 | 0.029 KA relative to UGCAUGU |
| B27 | 0.00451 KA relative to UGCAUGU |
| B28 | 0.0138 KA relative to UGCAUGU |
| B29 | 0.00609 KA relative to UGCAUGU |
| B30 | 0.0152 KA relative to UGCAUGU |
| B31 | 0.00377 KA relative to UGCAUGU |
